To fix the notation:
T1: UNK ZnF1-3 (human, UniProt Q9C0B0 31-174)
T1 sequence: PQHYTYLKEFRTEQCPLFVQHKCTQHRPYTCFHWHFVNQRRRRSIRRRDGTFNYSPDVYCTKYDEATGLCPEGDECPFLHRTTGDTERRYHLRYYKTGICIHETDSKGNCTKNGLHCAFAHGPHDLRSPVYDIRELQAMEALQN

B1: 55348197_55348317_2729_3pUTR_ENSMUSG00000021488_ENSMUST00000099490|mouse|control|control (ssRNA)
RNA: GGGAGUUCUACAGUCCGACGAUCGAAGCAGAAGAAAACAGUAAUGGCUUUGAUGCCUUUGCCGUUCCAGAAUCACUUACGUCUUCACUUAAUGAUCUGUACGAGAGCUCCUUCAGUUCCGAAAGAACGUGCUUCACCACUGCUCAACAGAGGAUUGAGCAUCA
B2: chr13:95058138:95058139:+_ENSG00000183098_ENST00000377047|hu_mus|motif|central (ssRNA)
RNA: GGGAGUUCUACAGUCCGACGAUCAUUAAACCUUUAACAUUAAAUCAGUCUACAAAACCAUACAACGGGCAGUGACAAUGACGGGGAAGGGCACGUUAAAAACAUUUUGUCCAUGUCUGUGUAAGAUGACCAACGAUGUGGCUUCAACAGAGGAUUGAGCAUCA
B3: chr8:95500983:95500984:-_ENSG00000164944_ENST00000437199|hu_hu|hu_hu_hu_mus_True|88_98 (ssRNA)
RNA: GGGAGUUCUACAGUCCGACGAUCAGAACACAUCUAUUCGUGUAAAGGAGCGUACAUACGGCCUCUACCACUGCCUCCACUAACAAACUUUCCUCUCGAGCCUCCACUGCCGCUAUUUGUACUAGCCCAGGACGGUCCCAGGCCCAACAGAGGAUUGAGCAUCA
B4: 144934483_144934603_1449_3pUTR_ENSMUSG00000038970_ENSMUST00000041804|mouse|control|control (ssRNA)
RNA: GGGAGUUCUACAGUCCGACGAUCUGCUGUUCAAAGUCGACCUCCGAGUCCCGCUGGCUCUGCAUCCUCAGGUAAGUUAGCAGACGGUGCACGUCUUCUGCGGCUGGCCUCUUGUCAGGAGGCAGCCAGCAGAACUGCAGCACUCAACAGAGGAUUGAGCAUCA
B5: chrX:20248820:20248821:+_ENSMUSG00000001924_ENSMUST00000001989|mus_mus|mus_mus_mus_hu_True|98_108 (ssRNA)
RNA: GGGAGUUCUACAGUCCGACGAUCGGCAAAGUCAGUCAUCACAAAGUCAGGUUCUGCCAGUGAGGCCACCAAGGAUUUAAAGCUAAUCUUCUUAGGUACUUUGACCUGACUGACGAUGCCUCCACGGAUGUAGUCGGAGAAGUUCAACAGAGGAUUGAGCAUCA
B6: chr5:174939138:174939139:+_ENSG00000164466_ENST00000321442|hu_hu|motif|central (ssRNA)
RNA: GGGAGUUCUACAGUCCGACGAUCGCCAACUUUGAGUUCCCUUUGCCUCAUUAAUGGAAUAUUAAUGCAAUUAGCAGCAGCGGCGGCAGCAAAGGGAACAAAACGUCCUAUCAGUGGUGAGACAUGCUUGGUCAAUGCAUUGAGCAACAGAGGAUUGAGCAUCA
B7: 160274744_160274864_4193_CDS_ENSG00000109756_ENST00000264431|human|control|control (ssRNA)
RNA: GGGAGUUCUACAGUCCGACGAUCGUGAGUAUGCCCGAAUGGAAGAGUCUCCCAGCUUCUCUGGUGCUGGAUCGUCUGUAUAUUAUCAUGGGAGCCACUUGAGCAUGACGUCCAGCUCCCACGGCCACUGUCAGCAGCAUCAAGCAACAGAGGAUUGAGCAUCA
B8: 44146565_44147813_1356_3pUTR_ENSMUSG00000035696_ENSMUST00000045793|mouse|control|control (ssRNA)
RNA: GGGAGUUCUACAGUCCGACGAUCUCAAUAUCUGCUUUAGUCAGUCCCCGAGGUUUCGCCUCUCCCAGUCUCUCCGCCAAGUUUAACAGGGCCUCAUAAUUUUCAACUUCUCCGUCUUCUACAUCUAAUUCAAAGCUGAAGGUUCAACAGAGGAUUGAGCAUCA
B9: 74703758_74703878_3027_3pUTR_ENSG00000104343_ENST00000602593|human|control|control (ssRNA)
RNA: GGGAGUUCUACAGUCCGACGAUCGAUAUUCUGGUUGUCUUUCAACAAUGCAUUACAGAGAAAUAUUCUUUUUAUUAUUACAAGCCAUUAAUUGCUCUCUGUAGAGCAAUGACUCAGAUAAAUGCCUUAUGACUUUUAAUAAUGCAACAGAGGAUUGAGCAUCA
B10: chr7:71034301:71034302:-_ENSMUSG00000052040_ENSMUST00000063694|mus_mus|FALSE|FALSE (ssRNA)
RNA: GGGAGUUCUACAGUCCGACGAUCGGACUUUGGAAUAAAAUUCCUGAAUCUGGAAUGUGAAUUCCUGAGACAUGAAAUGUGUUCAGAGUGUGGCUUUCUCUGCCUCACACAAAUGACUUUGGGAGGGACUACACUUUGGAACUCCAACAGAGGAUUGAGCAUCA
B11: chr2:25464519:25464520:-_ENSG00000119772_ENST00000380746|hu_mus|FALSE|FALSE (ssRNA)
RNA: GGGAGUUCUACAGUCCGACGAUCGUACAUGAUCUUUCCCUGGUGCCGCACCAUGCCCACCGUGAUGGAGUCCUCACACACCUCGGAGGCAAUGUAGCGGUCCACUUGGAUGCCCAGGUCCUUCAGCACCAGGAGCCCUGUAGCCAACAGAGGAUUGAGCAUCA
B12: chr17:73774127:73774128:-_ENSG00000132475_ENST00000254810|hu_mus|motif|central (ssRNA)
RNA: GGGAGUUCUACAGUCCGACGAUCUGACAAGACUCCCCACCACUUGUGAAUGUAAAACAUUUAAUUUAAAAAUGUUGAACACGGCAAUAUAUAAAAUAGCUAUUAUAAAUGCACAUAGUGUAUUCUAUAGCUGCCAGGUUUACUCAACAGAGGAUUGAGCAUCA
B13: chr1:153634984:153634985:-_ENSG00000143621_ENST00000361891|hu_hu|motif|central (ssRNA)
RNA: GGGAGUUCUACAGUCCGACGAUCUUCCUCUCCUUCCUUCUUCUCUGGUGGCUUCUCAUAAGCCUUUUCUGAAGGUGUUACGGUCACUCCAUCCCAGGUAGAUAUUUCAGAAGCAAGAUAGCUGGCAUCACCCUCCUGGCCAAGCAACAGAGGAUUGAGCAUCA
B14: chr10:60036935:60036936:+_ENSG00000122873_ENST00000333926|hu_mus|FALSE|FALSE (ssRNA)
RNA: GGGAGUUCUACAGUCCGACGAUCCUGAAGAUUCACCAUAGCUUUGGUGCGAUUCUCUUUAGCGUAGAACUUCUUGUAAGCCAGGUAACCGAGAGCGGCUGUGCCAGCAGCAAAGGUGACGGCCGCGAUCCACUCAACUCGCACCAACAGAGGAUUGAGCAUCA

The list shows a part of the results.

For the assay, the target named is T1, UNK ZnF1-3. Nature of the assay: nsRBNS (natural sequence RNA bind-n-seq); RBNS binding buffer (assumed for nsRBNS): 25 mM Tris pH 7.5, 150 mM KCl, 3 mM MgCl2, 0.01% Triton X-100, 500 ug/ml BSA, 20 U/ml SUPERase-In, 4 C; UNK is unkempt and MSI1 is Musashi-1; names of the RNAs are library labels; protein concentration not given here; high values mean tight binding.
As for B1, the binding signal turned out to be 0.552 enrichment R.

In turn, B2 had a binding signal of 1.55 enrichment R.

For the molecule B3, the binding signal worked out at 1.14 enrichment R. Then B4, with 0.529 enrichment R. Take B5: the binding signal was 0.819 enrichment R.

As to B6, the binding signal came out at 0.864 enrichment R. The molecule B7 yielded a binding signal of 0.755 enrichment R. Then B8, with 0.925 enrichment R; and B9, with 0.371 enrichment R; and B10, with 0.602 enrichment R.

Molecule B11 came in with a binding signal of 0.797 enrichment R. In turn, B12 returned a binding signal of 1.13 enrichment R. Then B13, with 1.07 enrichment R; and B14, with 0.938 enrichment R.

Values taken from paper PMC12136788.
